{
  "source": "PubChem BioAssay AID904",
  "about": "(National Center for Advancing Translational Sciences (NCATS), 2007)",
  "note": "The campaign covered roughly 55,000 compounds. About 530 (0.96%) were called active. Inconclusive results, whose numbers are uncertain, are shown with a selection of clear calls. The call rests on the fitted dose curve; in most records, active means well fitted cell-killing curve with a large enough effect; inconclusive means small, poorly fitted or top-dose-only effect; inactive means no such curve, though single readings can be large or run the other way. Potencies beside an inconclusive call are fits to weak or partial responses and may not hold up. Potency means the concentration at half of the fitted maximal effect; tags describe the fitted curve by direction and shape.",
  "data": [
    {"test": "qHTS Screen for Compounds that Selectively Target Cancer Cells with p53 Mutations: Cytotoxicity of p53 Null Cells at the Nonpermissive Temperature; further: nearly all actives have a fitted effect of over 50% in size;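 on activity, negative = cell killing: 0% = DMSO only and -100% = full killing by 100 µM tamoxifen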", "conditions": "H1299 p53-null (neo) cells, 39C, ATPlite viability, 24 h; activity, negative = cell killing: at 46.1 µM (top of the series)", "in_short": "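Temperature-shift cytotoxicity format: compound titrations on p53-null or A138V-expressing H1299 cells held 24 hr at 39C, cell ATP then measured, AC50 from Hill model.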", "values": [
      {"molecule": "COc1ccc(Cn2ccc3nc(C)c(C(=O)NCc4ccc(F)cc4)cc3c2=O)cc1", "Potency": "inconclusive: 2.82 µM [cytotoxic, full curve, poor fit]"},
      {"molecule": "Cc1cc(NC(=O)C2CCN(S(=O)(=O)c3ccc(Br)s3)CC2)ccc1Br", "activity, negative = cell killing": "inconclusive: -30.3% [cytotoxic]"},
      {"molecule": "CCCCN(CCCNC(=O)c1cc(Nc2ccc(OC)c(OC)c2)nc2ccccc12)Cc1ccccc1", "Potency": "inconclusive: 7.94 µM [cytotoxic, partial curve, poor fit]"},
      {"molecule": "Cc1ccc(-n2ncc(C(=O)NCc3ccco3)c2C2CCN(C(=O)OC(C)(C)C)CC2)c(C)c1", "Potency": "inconclusive: 7.94 µM [cytotoxic, partial curve, poor fit]"},
      {"molecule": "CCN(CC)C(=O)Cn1c(=O)n(Cc2ccc(C(=O)NCCc3ccc(OC)c(OC)c3)cc2)c(=O)c2ccccc21", "Potency": "inconclusive: 0.794 µM [cytotoxic, full curve, poor fit]"},
      {"molecule": "Cc1cc(C)cc(NS(=O)(=O)c2cc3c(cc2C)NC(=O)CO3)c1", "Potency": "inconclusive: 6.31 µM [cytotoxic, partial curve]"},
      {"molecule": "O=C(Nc1ccc(OC(F)(F)F)cc1)c1cc2ccccn2n1", "Potency": "inconclusive: 7.94 µM [cytotoxic, partial curve]"},
      {"molecule": "CCOC(=O)c1c(C)[nH]c(C)c1S(=O)(=O)N(C)CC(=O)Nc1ccc(C)cc1C", "Potency": "inactive"},
      {"molecule": "C=CCn1c(CNC(=O)c2cccs2)nnc1SCc1ccc(Cl)cc1Cl", "Potency": "inconclusive: 3.98 µM [cytotoxic, partial curve, poor fit]"},
      {"molecule": "COc1cc(C(=O)NCC(c2cccs2)S(=O)(=O)c2cccs2)cc(OC)c1OC", "note": "(stereo not drawn)", "Potency": "inconclusive: 5.62 µM [cytotoxic, single point]"},
      {"molecule": "O=C(CC(Nc1ccc(Cl)cc1)C(=O)O)c1ccccc1", "note": "(stereo not drawn)", "Potency": "active: 14.1 µM"},
      {"molecule": "COc1ccc(NC(=O)COc2ccc(-c3nn(C)c(=O)c4ccccc34)cc2)cc1", "Potency": "inconclusive: 0.398 µM [cytotoxic, full curve, poor fit]"},
      {"molecule": "Cc1ccc(-c2nc3sc(CCNC(=O)c4ccc(Br)o4)c(C)n3n2)cc1", "Potency": "inconclusive: 22.4 µM [cytotoxic, partial curve, poor fit]"},
      {"molecule": "CCCCN(CCCC)C(=O)c1cc2c(=O)n3cccc(C)c3nc2s1", "Potency": "inconclusive: 31.6 µM [cytotoxic, single point]"},
      {"molecule": "CC(C)(C)OC(=O)N1CCC(c2c(C(=O)N3CCC(c4ccccc4)C3)cnn2-c2cccc(Cl)c2)CC1", "note": "(stereo not drawn)", "Potency": "inactive"},
      {"molecule": "O=C(NCC1CCN(Cc2cccc(Cl)c2)CC1)Nc1cc(Cl)ccc1Cl", "Potency": "inconclusive: 31.6 µM [cytotoxic, single point]"},
      {"molecule": "CCc1cc2c(SCC(=O)c3ccc(C)cc3)ncnc2s1", "Potency": "inconclusive: 25.1 µM [cytotoxic, partial curve, poor fit]"},
      {"molecule": "COc1cccc(NC(=O)Nc2cccc(-c3cn4cccnc4n3)c2)c1", "Potency": "inconclusive: 10 µM [cytotoxic, single point]"},
      {"molecule": "COc1ccc(N(Cc2cc3cc(OC)ccc3[nH]c2=O)C(=O)c2cccc(Cl)c2)cc1", "Potency": "inconclusive: 2.51 µM [cytotoxic, single point]"},
      {"molecule": "Brc1ccc(CN2CCc3nc(Nc4ccccc4)ncc3C2)s1", "Potency": "inconclusive: 35.5 µM [cytotoxic, single point]"},
      {"molecule": "OCCN1CCN(c2ncnc3c2cnn3-c2cccc(Cl)c2)CC1", "Potency": "inactive"},
      {"molecule": "COc1ccc2c(c1)c(=O)c(C(=O)c1ccc(F)cc1)cn2CC(=O)Nc1ccc2c(c1)OCCO2", "Potency": "inconclusive: 1.12 µM [cytotoxic, full curve, poor fit]"},
      {"molecule": "Cc1cc2nn(-c3ccc(F)cc3)nc2cc1NC(=O)c1ccc(C(C)(C)C)cc1", "Potency": "inconclusive: 0.0316 µM [cytotoxic, full curve, poor fit]"},
      {"molecule": "Cc1ccc(CNC(=O)c2ccc3c(c2)NC(=O)C(CS(=O)(=O)Cc2cccc(C)c2)N3)cc1", "note": "(stereo not drawn)", "Potency": "inconclusive: 12.6 µM [cytotoxic, partial curve, poor fit]"},
      {"molecule": "COc1cccc(CNC(=O)Cn2c(=O)cc(C)c3c(C)nn(C)c32)c1OC", "Potency": "inactive"},
      {"molecule": "Cc1ccc(OCCn2c(CNc3ccccc3C)nc3ccccc32)cc1", "Potency": "inconclusive: 0.0316 µM [cytotoxic, full curve, poor fit]"},
      {"molecule": "CCCCNC(=O)CN1CCN(c2ccc(NC(=O)c3ccc(OC)cc3)cc2C(=O)O)CC1", "Potency": "inactive"},
      {"molecule": "COc1ccc(-c2nc(SCC(=O)NCC3CCCO3)c(-c3ccc(C)cc3)[nH]2)cc1OC", "note": "(stereo not drawn)", "Potency": "inactive"},
      {"molecule": "CC1CCCN(C(=O)c2ccc(CSc3nc4ccncc4n3Cc3ccccc3)cc2)C1", "note": "(stereo not drawn)", "Potency": "inconclusive: 14.1 µM [cytotoxic, single point]"},
      {"molecule": "CCCCN1C(C(=O)c2ccccc2)=C(OC(=O)CC)c2ccccc2S1(=O)=O", "Potency": "inconclusive: 12.6 µM [cytotoxic, partial curve]"},
      {"molecule": "Cc1cc(C)c(NC(=O)Cn2nnc3sc4c(c3c2=O)CCC(C(C)(C)C)C4)c(C)c1", "note": "(stereo not drawn)", "Potency": "inconclusive: 3.16 µM [cytotoxic, single point]"},
      {"molecule": "Cc1ccccc1CN1C(=O)C(O)(c2c[nH]c3ccccc23)c2cc(Cl)ccc21", "note": "(stereo not drawn)", "Potency": "inconclusive: 31.6 µM [cytotoxic, single point]"},
      {"molecule": "O=C(NC1(C(F)(F)F)N=C(c2ccccc2)N(Cc2ccccc2)C1=O)c1ccc(F)cc1", "note": "(stereo not drawn)", "Potency": "inconclusive: 31.6 µM [cytotoxic, single point]"},
      {"molecule": "Cc1nnc(N2CCCC(C(=O)Nc3cc(F)ccc3F)C2)c2nn(-c3ccccc3)c(C)c12", "note": "(stereo not drawn)", "Potency": "inconclusive: 15.8 µM [cytotoxic, partial curve]"},
      {"molecule": "COc1ccc(-c2nnc(Nc3nc4c(OC)cccc4s3)o2)c(OC)c1", "Potency": "inconclusive: 12.6 µM [cytotoxic, single point]"},
      {"molecule": "COc1cccc(NC(=O)c2csc3c2CCCCC3)c1", "Potency": "inconclusive: 11.2 µM [cytotoxic, partial curve]"},
      {"molecule": "Cc1ccccc1CS(=O)(=O)c1ncc(Cl)c(C(=O)Nc2nnc(C(C)C)s2)n1", "Potency": "inconclusive: 22.4 µM [cytotoxic, single point]"},
      {"molecule": "CC(C)c1ccc(-c2noc(SCC(=O)N(C)c3ccc(F)cc3)n2)cc1", "Potency": "inactive"}
    ]}
  ]
}
